Consider 44 compounds from ChEMBL document CHEMBL4888484, “Replenishing the malaria drug discovery pipeline: Screening and hit evaluation of the MMV Hit Generation Library 1 (HGL1) against asexual blood stage Plasmodium falciparum ,using a nano luciferase reporter read-out” (2022).

Molecules are shown by their SMILES. The campaign covered roughly 150,000 compounds. About 540 (0.36%) showed an effect of 50% or more. The list shows a part of the results.

For the assay, the system named is Plasmodium falciparum. Description: Primary screen in NF54 nanoGlo assay, in single point, at 2uM, 72h; a lower Z score goes with more inhibition. The assay is classed as functional, Erythrocyte. To be noted: timepoint 72 hour.
In the case of `Cc1ncc(CN(C)CC2(CO)CCC2)cn1`, the “% Inhibition” value is recorded as 12% and the Z score is -1.62.
For `CC(C)N(CCO)C(=O)c1ccc2oc(-c3ccc(C(F)(F)F)cc3)nc2c1` the same measures were -3% and 0.58.
Take `N#CCC(=O)NCCCc1ccccc1`: the “% Inhibition” value is given as -15% and the Z score worked out at 1.7.
For `C[C@H](NCCOCC1CCC1)c1cccc(O)c1` the same measures were -11% and 1.86.
For `O=C(NCC(c1ccco1)c1ccco1)NC1CCCC1` the same measures were -17% and 2.43.
For `CCCc1nc(N2CCCN(C(=O)C3CCCCC3)CC2)c2c(C)nn(-c3ccccc3)c2n1` the same measures were 37% and -4.98.
Consider `Cc1ccn(CC(=O)N[C@H]2CCN(c3ccc(=O)n(CC4CC4)n3)C2)n1`, for which the “% Inhibition” value is 2% and the Z score is -0.27.
On to `COc1ccc(NC(=O)c2cnc(N(C)C)nc2)cc1OC`, for which the “% Inhibition” value amounted to 8% and the Z score is reported as -1.59.
For `COc1ccc2cc(-c3nc(CCN(C)C(=O)CC(C)C)no3)[nH]c2c1` the same measures were -8% and 1.42.
For `CC(C)NC(=O)NCCOc1ccc(F)c(F)c1` the same measures were -5% and 0.76.
For the compound `COc1cccc(OCc2nc(C(=O)NCc3cccc(C)n3)co2)c1`, the “% Inhibition” value stood at 9% and the Z score is recorded as -1.12.
For `CC1OCCC12CN(C(=O)c1cccc(B(O)O)c1)CCO2` (stereo not drawn) the same measures were -9% and 1.13.
For `S=Cc1c2n(c3ccccc13)CCCN2` the same measures were -6% and 1.15.
For `CC(C)c1cnc(CN2CCOc3ccccc3[C@@H]2C(=O)O)o1` the same measures were 2% and -0.38.
As for `Cc1c(C(=O)N(Cc2ccco2)c2ccccn2)oc2ccccc12`, the “% Inhibition” value came to 3% and the Z score is on record as -0.52.
`Cc1cc(Br)ccc1CN(C)CC#N`: the “% Inhibition” value was -9% and the Z score turned out to be 1.24.
For `Cc1nc(C)c(C(=O)N2C(C(=O)N(C)C)C[C@@H]3OCC[C@@H]32)s1` (stereo partly drawn) the same measures were -6% and 1.18.
For `Cc1cn2c(n1)CCC(NC1CCCC(C(F)(F)F)C1)C2` (stereo not drawn) the same measures were 1% and -0.08.
For `CN1C[C@H](CNC(=O)c2ccccc2OC(F)(F)C(F)F)OCC1=O` the same measures were 1% and -0.14.
Turning to `CN(CCCc1nccn1C)CC1CCCCC1`, the “% Inhibition” value was 2% and the Z score was -0.4.
For `COc1ncccc1CN1CC[C@H]2CC(=O)NC[C@H](O)C(C)(C)COCCC[C@H]2C1` the same measures were -13% and 1.73.
For `Cn1ccnc(NC(=O)[C@H]2C3CCC(CC3)[C@@H]2C(F)(F)F)c1=O` the same measures were -5% and 0.68.
For `O=C(c1ccc2ccccc2n1)N1CCO[C@H](c2ccccc2)C1`, the “% Inhibition” value is listed as -1% and the Z score was 0.14.
For `COc1ccccc1Cn1ncc2[nH]c(-c3coc(-c4ccccc4)n3)nc21` the same measures were -16% and 2.25.
For `CN(C)S(=O)(=O)N1CCC(N2CCc3cc(F)ccc32)CC1` the same measures were -8% and 0.71.
On to `CCNC(=O)N(C)Cc1ncc(CC)s1`, for which the “% Inhibition” value is -12% and the Z score is 1.93.
For `Cc1cc(CN(Cc2ccncc2)Cc2ccc(C)s2)[nH]n1` the same measures were -8% and 1.29.
For `CC(C)(C)OC(=O)Nc1cccc(F)c1NCC(=O)NCC1CC1` the same measures were -10% and 1.62.
For `CCn1nccc1CNc1nnc2cc(C)ccn12` the same measures were -4% and 0.3.
As to `CC(C)CN=C(NCc1nc(C2CC2)no1)NC1CC1C` (stereo not drawn), the “% Inhibition” value was 13% and the Z score is listed as -1.64.
For the compound `CC(=O)NCc1ccc(CNC(C)=O)cc1`, the “% Inhibition” value is -9% and the Z score worked out at 1.11.
Take `CCOC(=O)c1cn(C[C@H](O)c2cccc(C#N)c2)nn1`: the “% Inhibition” value is listed as -16% and the Z score is 1.83.
For `CN(C(=O)Cn1nc2n(c1=O)CCCC2)c1ccccc1` the same measures were -7% and 0.87.
In the case of `Cc1noc(C2CCN([C@@H](C(=O)O)c3ccsc3)CC2)n1`, the “% Inhibition” value is given as -3% and the Z score is given as 0.43.
For `COc1ccc(Cn2cnc3c4ccccc4n(Cc4ccccc4Cl)c3c2=O)cc1` the same measures were 6% and -0.64.
Turning to `C[C@H]1CCCN(C(=O)Cn2c(=O)n(C)c3ccccc32)C1`, the “% Inhibition” value is reported as -20% and the Z score stood at 1.8.
For `c1ccc2nc(N3CC[C@H]4CC[C@@H](C3)N4)cnc2c1` the same measures were 1% and -0.14.
As to `CN1Cc2cc(NC(=O)[C@H]3CCCC(=O)N3)ccc2NC1=O`, the “% Inhibition” value was -3% and the Z score was determined as 0.38.
`Cc1nonc1COc1cccc(C#N)c1`: the “% Inhibition” value turned out to be 2% and the Z score is -0.45.
For `C[C@@H](CNC1(CO)CCOCC1)c1cccc(Br)c1` the same measures were 3% and -0.26.
For `Cc1cc([C@@H]2CCCN2S(=O)(=O)Cc2ccccc2)no1` the same measures were -4% and 0.5.
For `O=C(Cn1cccn1)c1ccc(Cl)cc1` the same measures were 5% and -0.67.
With `C=CC[C@]1(CO)CCCN(CCS(C)(=O)=O)C1`, the “% Inhibition” value is on record as 0% and the Z score stood at 0.05.
For `CCOc1ccc2c(n1)CCN(C(=O)c1cc(C)nn1C)C2` the same measures were -6% and 0.86.
